Out of some 150,000 compounds screened, about 540 (0.36%) showed an effect of 50% or more. The list shows a part of the results.
The compounds below were run on Plasmodium falciparum (assay: Primary screen in NF54 nanoGlo assay, in single point, at 2uM, 72h; a lower Z score goes with more inhibition). Conditions: timepoint 72 hour.
Assay type: functional, Erythrocyte
In the case of `Cc1ccnn1CCN(Cc1ccc2[nH]ccc2c1)C1CC1`, the “% Inhibition” value is reported as -15% and the Z score is reported as 3.03. In the case of `CCCn1nccc1-c1nc(Cc2cc(C(F)(F)F)ccn2)no1`, the “% Inhibition” value is reported as -9% and the Z score is reported as 1.28. With `O=C(Nc1ccc(F)c(Cl)c1)c1nc(-c2cn(-c3ccccc3)nn2)no1` the “% Inhibition” value was -12% and the Z score was 2.36. In the case of `O=c1[nH]cnc2[nH]nc(NS(=O)(=O)c3ccc4c(c3)CCCC4)c12`, the “% Inhibition” value is reported as -13% and the Z score is reported as 1.35. With `O=S(=O)(c1ccc2c(c1)OCCCO2)N1CC[C@H](c2ccsc2)C1` the “% Inhibition” value was -4% and the Z score was 0.68. `NC(=O)c1ccc(S(=O)(=O)NCCN2CCCCCC2=O)cc1` was tested, and the “% Inhibition” value was -6% and the Z score was 1.19. With `Cc1nn(C)c2nc(N3CC[C@H](N4CCCC4)C3)sc12` the “% Inhibition” value was -10% and the Z score was 1.99. In the case of `NC(=O)[C@H](Cc1ccc(O)cc1)NC(=O)[C@@H]1CCCN2CCCC[C@H]12`, the “% Inhibition” value is reported as -9% and the Z score is reported as 1.06. `COc1ccc(CN2CCC(C(=O)O)(n3cc(C)cn3)CC2)c(OC)c1` was tested, and the “% Inhibition” value was -1% and the Z score was 0.14. For `CC[C@H](C)N(C(=O)CCN)C1CCCC1`, the “% Inhibition” value was -13% and the Z score was 1.55. `CC1(C)[C@@H]2CC[C@]13CS(=O)(=O)N(C(=O)CCc1cccnc1)[C@@H]3C2` was tested, and the “% Inhibition” value was -7% and the Z score was 0.88. In the case of `O=C(NCCc1cscn1)c1cnn(Cc2ccccc2)c1`, the “% Inhibition” value is reported as -13% and the Z score is reported as 1.82. With `O=C(c1ccc2[nH]cnc2c1)N1C[C@@H]2CC[C@H]1CN(Cc1cscn1)C2` the “% Inhibition” value was 4% and the Z score was -0.53. `O=C(c1ccc2nccnc2c1)N1CCC(Oc2ccc(Cl)cc2)CC1` was tested, and the “% Inhibition” value was -13% and the Z score was 2.52. `CCN(CC)CCNC(=O)c1cc(C(c2ccccc2)c2ccccc2)no1` was tested, and the “% Inhibition” value was -9% and the Z score was 1.19. For `O=C1CC[C@H](N2CCN(Cc3ccccc3)CC2)CCN1CCOc1ccccc1`, the “% Inhibition” value was -12% and the Z score was 1.59. For `COc1ccc(S(=O)(=O)NCc2nnc(C(=O)Nc3ccc(F)cc3F)s2)cc1`, the “% Inhibition” value was 24% and the Z score was -2.74. With `Cc1ccc(S(=O)(=O)N2CCC[C@H](n3ccnn3)C2)o1` the “% Inhibition” value was -7% and the Z score was 0.93. For `O=C1CN(Cc2ncc(-c3ccccc3)o2)CCN1`, the “% Inhibition” value was 3% and the Z score was -0.3. `Cc1ccc2c(Nc3ccc(OCc4ccccc4)cc3)c(C(=O)N3CCOCC3)cnc2n1` was tested, and the “% Inhibition” value was -8% and the Z score was 1.26. With `Cc1ccc2nc(N3CCC[C@H](O)C3)c(CN3CCOC(C)(C)C3)cc2c1` the “% Inhibition” value was -9% and the Z score was 1.8. `COc1c(C)cc(C(=O)[C@H]2CCCN(C(=O)CCc3ccncc3)C2)cc1C` was tested, and the “% Inhibition” value was -12% and the Z score was 1.82. For `CCc1c(C)nn2c(=O)cc(-c3nc(C)c[nH]3)[nH]c12`, the “% Inhibition” value was -4% and the Z score was 0.49. For `CC(C)N1CCO[C@@H](CCNC(=O)[C@H]2CC[C@H](C)CC2)C1`, the “% Inhibition” value was -1% and the Z score was 0.25. With `O=C(NCc1cn2c(n1)C(=O)N(Cc1ccccc1)CC2)c1cnccn1` the “% Inhibition” value was -13% and the Z score was 1.72. With `Cc1nc(CNC(=O)[C@H](O)c2ccccc2Cl)n[nH]1` the “% Inhibition” value was 4% and the Z score was -0.69. In the case of `CCCC[C@H](CC)CNC(=O)C(=O)Nc1nccs1`, the “% Inhibition” value is reported as 2% and the Z score is reported as -0.22. In the case of `N#Cc1ccc(Br)cc1Br`, the “% Inhibition” value is reported as 5% and the Z score is reported as -0.72. In the case of `Cc1cccc2c1nc1n2[C@@H](CN(Cc2c[nH]c3ccccc23)Cc2c[nH]c3ccccc23)COC1`, the “% Inhibition” value is reported as -1% and the Z score is reported as 0.16. `c1cc2c(cc1-c1csc(N3CCOCC3)n1)OCCO2` was tested, and the “% Inhibition” value was -20% and the Z score was 1.68. `CC1CCCC(N(CC(=O)Nc2ccc(S(N)(=O)=O)cc2)Cc2ccc3c(c2)OCO3)C1C` (stereo not given) was tested, and the “% Inhibition” value was -18% and the Z score was 2.1. `COc1ccc(-c2nn(-c3ccccc3)cc2CC(=O)N2CC[C@H](CN)C2)cc1` was tested, and the “% Inhibition” value was -9% and the Z score was 1.64. With `Cc1ccc(O[C@H]2CCCN(C(=O)c3cc(=O)[nH]c(=O)[nH]3)C2)nn1` the “% Inhibition” value was -14% and the Z score was 2.4. For `O=C(c1cn(-c2cccc(Cl)c2F)nn1)N1CCC[C@@H]1Cn1ccnc1`, the “% Inhibition” value was 4% and the Z score was -0.62. `Cc1nc(CC(C)C)c(NC(=O)N(C)C[C@H](O)C(F)(F)F)s1` was tested, and the “% Inhibition” value was -1% and the Z score was 0.19. With `Nc1ncccc1CNS(=O)(=O)c1cccc(C(=O)N2CCC2)c1` the “% Inhibition” value was 0% and the Z score was -0.02. With `Cc1cccc(S(=O)(=O)N2C[C@H](c3noc(C)n3)C3(CCOCC3)C2)c1` the “% Inhibition” value was 0% and the Z score was 0. For `CCOc1ccc(N2CCC(C)(C)C2)nn1`, the “% Inhibition” value was -8% and the Z score was 0.76. `CN1CCN(CC2CCN(C(=O)NCc3cccc(F)c3)CC2)CC1` was tested, and the “% Inhibition” value was -10% and the Z score was 1. `CCN(CC(=O)c1c(N)n(CC)c(=O)[nH]c1=O)c1ccc(F)cc1` was tested, and the “% Inhibition” value was -7% and the Z score was 1.22. For `CC1CCC2C(CCCN2C(=O)c2ccc(CS(C)(=O)=O)o2)C1` (stereo not given), the “% Inhibition” value was -7% and the Z score was 1.22. `CC(=O)NCCNS(=O)(=O)c1ccc(C)cc1Br` was tested, and the “% Inhibition” value was -7% and the Z score was 0.92. `CCN(CC)CC(=O)N1CCN(c2nncc3ccccc23)CC1` was tested, and the “% Inhibition” value was -9% and the Z score was 1.69. For `CC1CCN(C(=O)c2ccc3c(c2)N(Cc2ccccc2)C(=O)CO3)CC1`, the “% Inhibition” value was -5% and the Z score was 0.69. For `CC1CN(C(=O)CNC2CC(C)(C)OC2(C)C)CC(C)O1` (stereo not given), the “% Inhibition” value was -1% and the Z score was 0.09. With `CCCS(=O)(=O)Nc1cccn2ncnc12` the “% Inhibition” value was -6% and the Z score was 0.63. For `O=C(Cc1cccnc1)NCc1cccnc1-c1ccsc1`, the “% Inhibition” value was 1% and the Z score was -0.15. `Cc1cc(C(=O)Nc2onc(C3CCCCC3)c2C)nc(C(F)(F)F)n1` was tested, and the “% Inhibition” value was 2% and the Z score was -0.29. With `CS(=O)(=O)N1C[C@@H]2OC(=O)N(CCc3ccc(F)cc3)[C@@H]2C1` the “% Inhibition” value was 15% and the Z score was -1.95. `CC[C@@]1(C(=O)NCc2cccc(COC3CCOCC3)c2)CCCN1` was tested, and the “% Inhibition” value was -9% and the Z score was 0.87. For `O=C([C@H]1CCO[C@@H]1c1ccncc1)N1CCN(c2ccc(F)cc2)CC1`, the “% Inhibition” value was -12% and the Z score was 2.03. For `CC1Cc2ccccc2N1C(=O)C1CCS(=O)(=O)C1` (stereo not given), the “% Inhibition” value was 5% and the Z score was -1.02. In the case of `C[C@H]1CCCN(C(=O)Nc2cnn(-c3ccccc3)c2)C1`, the “% Inhibition” value is reported as 6% and the Z score is reported as -1.2. With `Oc1cc(CN[C@H]2CCc3c(O)cccc32)nc(C2CC2)n1` the “% Inhibition” value was -12% and the Z score was 2.24. In the case of `Cc1cc(NC(=O)CN2CCC[C@H]2c2nc(-c3ccccn3)no2)no1`, the “% Inhibition” value is reported as -7% and the Z score is reported as 0.92. `CC(C)Cc1nc(CNC(=O)c2ccncc2F)no1` was tested, and the “% Inhibition” value was 10% and the Z score was -1.82. `CCC(=O)N(Cc1csc(COc2ccc(Cl)cc2)n1)C1CC1` was tested, and the “% Inhibition” value was -2% and the Z score was 0.23. `CCOC1(C(=O)Nc2cnc3ccccc3c2)CCCC1` was tested, and the “% Inhibition” value was 19% and the Z score was -2.2. In the case of `CC[C@H](NC(=O)NCc1scnc1C)c1ccc(F)cc1F`, the “% Inhibition” value is reported as -7% and the Z score is reported as 1.33. For `O=C1CCC2(CCN(C(=O)c3ccon3)CC2)CN1Cc1cccnc1`, the “% Inhibition” value was 5% and the Z score was -0.6. In the case of `CCCN1CCN(C(=O)c2nn(CC)c3c2COCC3)CC1`, the “% Inhibition” value is reported as -6% and the Z score is reported as 1.01. With `Cc1cc(CS(=O)(=O)CC(=O)N2CCc3ccccc3C2)on1` the “% Inhibition” value was 2% and the Z score was -0.31. With `NS(=O)(=O)c1ccc(Cl)c(Cl)c1Cl` the “% Inhibition” value was -5% and the Z score was 0.95. With `c1c(CN2CCOCC23CC3)sc2c1CNCC2` the “% Inhibition” value was -10% and the Z score was 1.03. With `Cc1cccn2cc(C(=O)N3CCO[C@H](c4ncon4)C3)cc12` the “% Inhibition” value was 1% and the Z score was -0.17. With `COc1ccc(CNC(=O)CC[C@@H]2CNC(=O)[C@@H]3C[C@H](NCc4ccccc4)CN23)cc1` the “% Inhibition” value was 9% and the Z score was -1.04. In the case of `COc1ccc(-n2cccn2)c(CN2C[C@H]3CC(=O)NCCN(C)C(=O)c4cccc(OC)c4OCc4cn(nn4)[C@H]3C2)c1`, the “% Inhibition” value is reported as -3% and the Z score is reported as 0.55. In the case of `CCS(=O)(=O)NC[C@H](C)N(C)Cc1cccc(OC)c1`, the “% Inhibition” value is reported as -2% and the Z score is reported as 0.35. `CCCS(=O)(=O)N[C@H]1CC(=O)N(C(C)(C)C)C1` was tested, and the “% Inhibition” value was 3% and the Z score was -0.5. `Cn1cc(S(N)(=O)=O)c(C2CCCC2)n1` was tested, and the “% Inhibition” value was 8% and the Z score was -1.33. In the case of `O=S(=O)(NC1CCC(F)(F)CC1)C1CC1`, the “% Inhibition” value is reported as -11% and the Z score is reported as 1.44. For `Cc1ccc(C(N)=O)cc1NCc1ccn(C)c(=O)c1`, the “% Inhibition” value was 0% and the Z score was -0.04. In the case of `CC1CN(S(=O)(=O)N(C)C)CC(C)O1` (stereo not given), the “% Inhibition” value is reported as 4% and the Z score is reported as -0.57. With `COc1cc([C@@H]2c3cccn3CCCN2Cc2ccc(N(C)C)cc2)cc(OC)c1OC` the “% Inhibition” value was -1% and the Z score was 0.18. `O=C(CN1CCN(S(=O)(=O)c2ccc(F)cc2)CC1)NC1CCCCCC1` was tested, and the “% Inhibition” value was -11% and the Z score was 1.4. `COc1ccc(OC)c(CCN2C(=O)CC[C@@]2(C)C(=O)NC2CCCC2)c1` was tested, and the “% Inhibition” value was -2% and the Z score was 0.18. With `CN(Cc1nnc2ccccn12)c1snc2ccccc12` the “% Inhibition” value was -13% and the Z score was 1.44. With `O=C1CN(C(=O)c2cccnc2Nc2ccccc2F)CCN1` the “% Inhibition” value was 1% and the Z score was -0.22. In the case of `Cc1ncc(-c2cc(C(=O)N3CCC[C@H](C)C3)c3ccc(C)c(C)c3n2)cn1`, the “% Inhibition” value is reported as -11% and the Z score is reported as 1.5. In the case of `Cc1nn(CC(=O)N[C@H]2CC(=O)N(Cc3cccc(F)c3)C2)c(C)c1C`, the “% Inhibition” value is reported as -5% and the Z score is reported as 0.49. `C[C@H]1CN(C(=O)c2onc3c2CCCC3)CCC1(F)F` was tested, and the “% Inhibition” value was -7% and the Z score was 1.36. For `O=c1[nH]c(-c2cccnc2)nc2c1CCC2`, the “% Inhibition” value was -3% and the Z score was 0.6. For `CCO[C@@H](C)C(=O)Nc1cnns1`, the “% Inhibition” value was 31% and the Z score was -4.03. For `CCCc1noc(-c2ccc3nnc(CC(=O)NC4CCCC4)n3c2)n1`, the “% Inhibition” value was -24% and the Z score was 3.79. With `CCOC(=O)c1ccccc1OCc1cc([C@H]2Nc3ccccc3C(=O)N2c2ccc(OC)cc2)ccc1OC` the “% Inhibition” value was 2% and the Z score was -0.2.

Source: ChEMBL document CHEMBL4888484, “Replenishing the malaria drug discovery pipeline: Screening and hit evaluation of the MMV Hit Generation Library 1 (HGL1) against asexual blood stage Plasmodium falciparum ,using a nano luciferase reporter read-out” (2022)
